# The full ranking holds about 33,000 sequences; the median of “E-score (-0.5 to 0.5)” is about -0.016, and the highest 2% start at about 0.31. The list shows a part of the results.
# Biological target: Cst6 (UniProt P40535)
# Experiment: PBM E-score (8-mer binding enrichment) (E-score (-0.5 to 0.5)); higher = stronger / more preferred TF binding; most listed sequences are background and not binding sites
# Conditions: protein concentration: 200 nM; construct: GST-DNA-binding domain
# Outline: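 Bound GST-tagged yeast transcription factors, applied at about 100-200 nM to double-stranded universal all-10-mer Agilent arrays, were detected with fluorescent anti-GST. Scans were normalised with masliner. A modified Wilcoxon-Mann-Whitney statistic, the E-score, was assigned to each ungapped eight-base word pooled with its reverse complement by the Universal PBM Analysis Suite.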
row,Sequence,PBM E-score
1,GGGAAGCA,-0.193
2,CGCCAGCC,-0.193
3,ACACTGGC,-0.164
4,CGGCGGAC,-0.155
5,ACGCCCCA,0.0306
6,CTTCTTGC,0.125
7,CGCGGCCG,0.0311
8,GTGCTTCA,-0.00155
9,AATGTACG,0.00127
10,AAGACAAT,0.155
11,CCTTCTAC,-0.175
12,AGTATAGA,0.0483
13,ACAGTTCC,-0.129
14,ATCTCGGC,-0.21
15,GCCCATTA,-0.131
16,CAAAAAAC,0.201
17,GACAAACC,-0.0663
18,ACAATAAG,0.128
19,GCAACTGC,0.0204
20,CCAGAGAA,0.0435
21,ACTTGGGG,-0.174
22,AATGCCCA,-0.102
23,CGTTCCAG,-0.102
24,TACAGAGA,-0.0264
25,TAAACTAA,0.247

row,Sequence,PBM E-score
1,CGAAGAAA,0.0601
2,AGTGATCC,-0.125
3,CGTCTTCA,0.00389
4,ACGGGTGA,0.0387
5,GCCCACGC,-0.238
6,CATAATTC,0.203
7,ACGAGTCA,-0.0366
8,AAATGTAC,0.0197
9,GACGACTA,-0.0689
10,ACACTATC,0.0871
11,TCACACCA,0.183
12,CCTCTCCA,-0.382
13,CAGAATGC,-0.0407
14,AGCCGGTC,-0.193
15,GATCCACA,-0.098
16,AAATTCCG,0.0499
17,TGCCGGAA,-0.0641
18,GCTGTTTA,0.0917
19,GATATGCC,-0.0751
20,CGAGAACA,0.00653
21,CCGTGGTC,-0.113
22,GGAAGCCA,-0.394
23,CCGCACCA,-0.0342
24,CCGAGCAA,-0.147
25,CAGATAGA,-0.139

row,Sequence,PBM E-score
1,CGTAGTGC,0.0646
2,ATAGGCTC,-0.0383
3,CCAAGAGC,-0.16
4,CCGAAACG,-0.0965
5,CCGGGAGA,-0.288
6,CCCCAGTA,-0.279
7,GTCTTAAC,0.14
8,CAATTTAC,0.132
9,CCTCCCAC,-0.255
10,TAATGGTA,0.0266
11,TAATTGCA,0.166
12,ATACCGCC,-0.0536
13,ATCTGGCC,-0.115
14,GTCTTGTA,-0.0135
15,GTCTAGAC,-0.0977
16,ACGAGTTA,0.0712
17,CCCCAAGA,-0.0387
18,GCAGCTTA,-0.106
19,CGCTATTC,0.12
20,AATGCCTC,0.117
21,CAGCCGTC,0.0864
22,ATTGTATG,0.0123
23,TAGTAACA,0.153
24,AAATTGTA,0.134
25,GAGACTTA,-0.132

row,Sequence,PBM E-score
1,AGCCATAA,0.0412
2,AGACATCC,-0.211
3,CTCCATGA,0.166
4,AAGCGTAA,0.061
5,TCAAACGA,0.153
6,GACATATA,0.227
7,CATTTTAC,0.273
8,ATTCATTC,0.26
9,AGGCCCCT,-0.349
10,TACTGCGA,-0.0901
11,CACGGACA,-0.0605
12,CCACCCAC,0.00112
13,AGTGAGGC,0.0167
14,GCCTGCTA,-0.323
15,AGCACGAA,0.0875
16,CTTATGCA,0.0897
17,GTAAGTAC,0.14
18,AGGTTCTC,-0.185
19,CTTCGGCA,-0.0407
20,ACCAAATC,0.0665
21,AGATTACC,0.144
22,CGTTCTGA,-0.0627
23,GCAGTTCA,0.0321
24,AGAACTCG,-0.00043
25,CAGGTTTC,0.0251

row,Sequence,PBM E-score
1,CCGGGTTA,-0.281
2,AAGACCGA,-0.0271
3,AGCGCTAT,0.0975
4,GTGTGCCA,-0.0844
5,CTGTGAGA,-0.0662
6,AAGCGCTC,-0.0595
7,ATTCCTAC,0.131
8,AAGTCAAT,0.0535
9,ATTATCCG,0.145
10,AGTCACGA,0.0257
11,CGTTACTA,0.0598
12,CCGGAGGC,-0.266
13,CTCTCACA,0.064
14,CGCATGGC,0.0284
15,GAAAGACA,0.179
16,CGGCAATC,0.0148
17,AGTATTTG,0.0172
18,GATGACGC,0.473
19,AGAGCAAC,-0.086
20,AACGTTAT,0.138
21,ATTGCGGG,-0.0524
22,CCGGATCG,-0.134
23,ACGTAACT,0.413
24,CTCATTCC,-0.0452
25,ACATACCA,-0.166

row,Sequence,PBM E-score
1,GGTCGGGA,-0.194
2,ACTGTACG,-0.0454
3,CAAGCCAG,-0.114
4,AGCCTATC,-0.0367
5,CAAATGGA,-0.00282
6,CCGTACAA,0.0869
7,CGAGCCAG,-0.192
8,ATAACGTG,0.213
9,ACACTGGT,-0.0535
10,AATCCACC,-0.121
11,CAGTTGCG,-0.0514
12,AAGCTAAA,0.0432
13,ACAGTTTG,-0.0844
14,ATTTTGAG,0.202
15,CGGTCACC,0.0497
16,AGCGGGCA,-0.236
17,AACAGCTC,0.0244
18,GCGCCCCA,0.00687
19,AGGAAATG,0.116
20,TAAGTAAA,0.0797
21,AACCGCCT,-0.011
22,ACGATTAT,0.106
23,AGCAGGTG,0.188
24,ATATGAAG,0.148
25,CACTAGCC,0.0103

row,Sequence,PBM E-score
1,ATGTGCAA,0.0873
2,CACAAAAA,0.236
3,AAAGTTAG,0.12
4,ATGTCGCC,0.0795
5,CATACCAG,-0.0727
6,GCTGGTTA,0.0697
7,AGAGTCCA,-0.0252
8,ATTCGGTG,0.154
9,AAGCTACT,-0.0892
10,CTACCGGC,-0.217
11,ACCTTGCG,0.117
12,CAAAGAAA,0.106
13,TTCCGGAA,-0.201
14,GACTGACA,0.077
15,GACTCTCC,-0.116
16,AAATCCGT,0.235
17,GACAGAAC,0.0521
18,CTGCAAGA,-0.0492
19,ATAACCAT,0.014
20,ACCCCATG,-0.00368
21,GCTCCATA,0.0655
22,CGTGCTCC,-0.15

# — the supplement of paper PMC3334620
